# Source: PubChem BioAssay AID588855 (National Center for Advancing Translational Sciences (NCATS), 2011)
# The whole screen tested about 410,000 compounds, of which about 5,000 (1.2%) were called active. Inconclusive results, whose numbers are uncertain, are shown with a selection of clear calls. Calls come from the whole dose curve; as a rule, active = well fitted inhibition curve with a large enough effect; inconclusive = small, poorly fitted or top-dose-only effect; inactive = no such curve, though single readings can be large or run the other way. A potency beside an inconclusive call is a rough fit, not a confirmed value. The source holds several records for some structures; these can differ, active in one and inactive in another.
# Experiment: qHTS for Inhibitors of TGF-b; note: nearly all actives have a fitted effect of over 65% in size
# Conditions: HepG2 CAGA-GFP TGF-b/SMAD3 reporter, GFP fluorescence, 18 h, TGF-beta stimulated, 500 pg/mL final; series mostly up to 46.1 µM
# How it was run: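 GFP signal (ex488/em500-530) from TGF-beta-stimulated HEPG2 CAGA-GFP cells, 500 pg/mL final, 18 h at 37 degrees C in DMEM plus 1% FBS, normalized to unstimulated and DMSO-stimulated controls.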
# Potency is the fitted concentration of half-maximal effect; tags give direction and shape of the fitted curve.
row,SMILES,Potency
1,Oc1ccccc1-c1cc(-c2ccccc2)no1,"inconclusive: 2.82 µM [inhibitor, partial curve, poor fit]"
2,O=Nc1c(O)n(Cc2c(Cl)cccc2Cl)c2ccccc12,"inconclusive: 12.6 µM [inhibitor, partial curve, poor fit]"
3,CN(C)c1ccc(/C=C2\SC(N3CCCCC3)=NC2=O)cc1,inactive
4,CC(c1n[nH]c(=S)n1Cc1ccccc1)N(C)C (stereo unspecified),"inconclusive: 0.501 µM [inhibitor, full curve, poor fit]"
5,O=C(c1ccccc1)N1CCN(Cc2c[nH]c3ccccc23)CC1,inactive
6,N#CC(C#N)=C1C(=O)N(CCN2CCOCC2)c2ccccc21,"inconclusive: 25.1 µM [inhibitor, single point]"
7,COc1ccc2c(c1)C[C@]1(C)c3ccccc3C(=O)N(Cc3ccccc3)[C@H]21,active: 11.2 µM
8,COc1ccc(OCC(=O)N2CCN(c3cccc(Cl)c3)CC2)cc1,inactive
9,C=CC[C@H](CC(=O)N[C@H](CO)Cc1ccccc1)C(=O)N[C@H](COC(=O)[C@@H](CC=C)Cc1ccc(F)cc1)Cc1c[nH]c2ccccc12,inactive
10,O=C(CCN1CCOCC1)Nc1c(-c2ccccc2)c2cc(Br)ccc2[nH]c1=O,"inconclusive: 0.112 µM [inhibitor, full curve, poor fit]"
11,Cc1ccc(C(=O)N/N=C(/CC(=O)c2cccs2)C(F)(F)F)cc1,"inconclusive: 12.6 µM [inhibitor, single point]"
12,Cc1ccc(S(=O)(=O)N2CCCc3cc(NS(=O)(=O)c4ccc(F)cc4)ccc32)cc1,"inconclusive: 12.6 µM [inhibitor, partial curve, poor fit]"
13,CCc1c(C)nc2ncnn2c1N1CCC(C(=O)NCc2cccc(OC)c2)CC1,inactive
14,COc1cccc(NC(=O)Cn2c(=O)n(Cc3ccc(C(=O)NCc4ccc5c(c4)OCO5)cc3)c(=O)c3ccccc32)c1,"inconclusive: 0.316 µM [inhibitor, partial curve, poor fit]"
15,Cc1cc(-c2ccc(Cl)cc2)n2ncnc2n1,"inconclusive: 0.112 µM [inhibitor, full curve, poor fit]"
16,O=C(Nc1nccs1)c1ccc(Cl)c(S(=O)(=O)N2CCOCC2)c1,"inconclusive: 35.5 µM [inhibitor, single point]"
17,CC(=O)c1c(C)nc(-c2ccc(Cl)cc2)nc1NC(=O)C(C)C,inactive
18,CCc1ccc(CNC(=O)Cn2nc(-c3ccc(Cl)cc3)ccc2=O)cc1,"inconclusive: 35.5 µM [inhibitor, single point]"
19,COc1ccc(C2c3c(n(C)c4ccccc34)C(=O)N2CC(=O)Nc2ccc(C)cc2Cl)cc1 (stereo unspecified),"inconclusive: 2.82 µM [inhibitor, single point]"
20,Cc1ccc(N2C(S)=C(C#N)C(=O)NC2c2ccco2)cc1 (stereo unspecified),"inconclusive: 35.5 µM [inhibitor, single point]"
21,CCOC(=O)CCNC(=O)N1CCCC(Cc2ccccc2)(C(=O)OCC)C1 (stereo unspecified),inactive
22,COc1ccc2[nH]cc(CCNC(=S)NCCc3ccccc3)c2c1,"inconclusive: 35.5 µM [inhibitor, single point]"

row,SMILES,Potency
1,O=C(CC1C(=O)NCCN1Cc1c(F)cccc1Cl)NCc1ccccc1 (stereo unspecified),"inconclusive: 0.316 µM [inhibitor, full curve, poor fit]"
2,Cc1cc(C)c(NC(=O)c2c(C)oc3c2C2=NCCN2C=N3)c(C)c1,"inconclusive: 0.112 µM [inhibitor, full curve, poor fit]"
3,CN1CCN(c2nc3c(c(=O)[nH]c(=O)n3C)n2CCCSc2nnnn2-c2ccccc2)CC1,inactive
4,Cc1ccc(C(=O)OCc2cc3ccccc3[nH]c2=O)cc1,"inconclusive: 35.5 µM [inhibitor, single point]"
5,COc1ccc2nc(NC(=O)CSc3n[nH]c(N)n3)sc2c1,"inconclusive: 14.1 µM [inhibitor, single point]"
6,CCN(C(=O)COC(=O)c1ccccc1O)c1cccc2ccccc12,"inconclusive: 6.31 µM [inhibitor, single point]"
7,O=C(Nc1nc2ccccc2[nH]1)c1ccccc1O,inactive
8,COc1cc(CNc2ccc3[nH]c(=O)[nH]c3c2)ccc1OCc1cccc(C)c1,"inconclusive: 0.316 µM [inhibitor, full curve, poor fit]"
9,O=C(NCc1ccc2c(c1)OCO2)c1nnc(Cc2ccc(F)cc2)o1,"inconclusive: 20 µM [inhibitor, single point]"
10,CCc1c(C2(O)CCCCC2)[nH]c2c(C(=O)OC)cc(Cl)cc12,"inconclusive: 35.5 µM [inhibitor, single point]"
11,COc1ccc(CN2CCN(C(c3ccc(F)cc3)c3ccc(F)cc3)CC2)c(OC)c1OC,"inconclusive: 35.5 µM [inhibitor, single point]"
12,COc1cc(NC(=S)NCCCO)c(OC)cc1Cl,"inconclusive: 35.5 µM [inhibitor, single point]"
13,CCN1C(=NCC2CC2)N[C@@H](c2ccccc2)C(C(=O)OC)=C1C,inactive
14,CCN(CC)CCCNc1nc2ccccc2c2nc(-c3ccncc3)nn12,inactive
15,COc1ccc(S(=O)(=O)Nc2ccc3c(c2)C(=O)N([C@H](C)CO)C[C@H](C)[C@@H](CN(C)C(=O)Nc2c(C)noc2C)O3)cc1,"inconclusive: 4.47 µM [inhibitor, partial curve]"
16,C[C@@H]1CN([C@@H](C)CO)S(=O)(=O)c2ccc(Br)cc2O[C@H]1CN(C)C(=O)Nc1ccc(C(F)(F)F)cc1,"inconclusive: 35.5 µM [inhibitor, single point]"
17,CCCC1=Nc2cc(C(=O)N3CCC(C(=O)OCC)CC3)ccc2Sc2ccccc21,active: 12.6 µM
18,C=CCN1CCN(C(=O)c2oc3ccccc3c2C)CC1,"inconclusive: 1.12 µM [inhibitor, full curve, poor fit]"
19,CCOC(=O)c1cnc2ccc(OCC)cc2c1NCc1ccccc1,"inconclusive: 22.4 µM [inhibitor, single point]"
20,Cn1nnnc1SCC(=O)N1N=C(c2ccc(Cl)cc2)CC1c1ccco1 (stereo unspecified),"inconclusive: 14.1 µM [inhibitor, single point]"
21,CCOC(=O)N1CCC(n2c(SCC(=O)Nc3ccccc3OC)nc3ccccc3c2=O)CC1,"inconclusive: 35.5 µM [inhibitor, single point]"
22,COCCNC(=O)C1CCCN(C(=O)COCc2ccccc2)CC1 (stereo unspecified),inactive

row,SMILES,Potency
1,COc1ccc(Cn2c(C3CC3)nc3ccc(NC(=O)c4cccnc4)cc3c2=O)cc1,inactive
2,O=C(Cc1ccccc1)Nc1ccccc1C(=O)N1CCN(c2ccccc2)CC1,"inconclusive: 6.31 µM [inhibitor, single point]"
3,CC1(C)Cc2c(c(N3CCOCC3)nc3sc(-c4ccc(C(=O)O)o4)c(N)c23)CO1,inactive
4,COC(=O)C1=C(C(=O)c2ccccc2)C(c2cccs2)n2nnnc2N1 (stereo unspecified),inactive
5,COc1ccccc1C(=O)N(c1ccc(C)cc1)S(=O)(=O)c1ccc(Cl)cc1,"inconclusive: 35.5 µM [inhibitor, single point]"
6,Oc1cc2c(cc1C(c1ccc(Br)cc1)N1CCCC1)OCO2 (stereo unspecified),"inconclusive: 12.6 µM [inhibitor, partial curve, poor fit]"
7,CCOC(=O)c1ccc(O)c(-n2cc3c(c2-c2ccccc2)c(=O)n(C)c(=O)n3C)c1,inactive
8,Cc1ccc(CN2CCN(C(=O)CCC(=O)Nc3nnc(C(C)C)s3)CC2)c(C)c1,"inconclusive: 35.5 µM [inhibitor, single point]"
9,O=S(=O)(Nc1ncnc2sc3c(c12)CCC3)c1ccc(Cl)s1,"inconclusive: 5.62 µM [inhibitor, full curve]"
10,CC(C)C[C@H](NC(=O)c1[nH]cnc1C(=O)Nc1ccc(CNC(=O)OC(C)(C)C)cc1)C(=O)OCc1ccccc1,"inconclusive: 0.355 µM [inhibitor, full curve, poor fit]"
11,COc1cccc(Cl)c1NC(=O)N1CCN(c2ccnc3cc(Cl)ccc23)CC1,"inconclusive: 14.1 µM [inhibitor, partial curve, poor fit]"
12,COC(=O)c1cc(-c2c(-c3cc(OC)c(OC)c(OC)c3)noc2C)cc([N+](=O)[O-])c1,"inconclusive: 35.5 µM [inhibitor, single point]"
13,Cc1cccc(Cn2c(=O)n(-c3ccccc3C)c(=O)c3c2c2cc(C)ccc2n3C)c1,inactive
14,c1cncc(-c2nnc3sc(-c4ccco4)nn23)c1,inactive
15,O=C(Nc1ccccc1F)C1(c2ccccc2)CC1(Cl)Cl (stereo unspecified),"inconclusive: 35.5 µM [inhibitor, single point]"
16,CCc1cccc(C)c1NS(=O)(=O)c1ccc2c(c1)CC(C)N2C(=O)C1CC1 (stereo unspecified),"inconclusive: 35.5 µM [inhibitor, single point]"
17,CCOc1ccc(NC(=S)NC(=O)/C=C/c2ccc(OC)cc2)c([N+](=O)[O-])c1,"inconclusive: 35.5 µM [inhibitor, single point]"
18,Cc1c(NC(=O)/C(C#N)=C/c2ccc(-c3cccc(Cl)c3)o2)c(=O)n(-c2ccccc2)n1C,inactive
19,COc1ccc(-c2noc(CSc3nc4ccccc4[nH]3)n2)cc1OC,"inconclusive: 35.5 µM [inhibitor, single point]"
20,COc1cc(/C(C)=N/N2CCN(c3ccccc3OC)CC2)ccc1O,inactive
21,Brc1ccccc1CN1CCN(Cc2c[nH]c3ccccc23)CC1,"inconclusive: 22.4 µM [inhibitor, partial curve, poor fit]"
22,CCC[C@H]1CN(Cc2ccccc2)C(=O)[C@@H]1CC(=O)NC,inactive
